Source: the RNAGym collection of RNA variant scans (doi:10.7554/elife.90254)
The source gives no read counts; variants with many changes may rest on few reads.

B1: LINE1-mini (parent)
chain: GGCAGAGCUCAACACAGCGUGGCAAAGUGGCUGUGGCUAGACUGCC

Variants of: B1
Experiment: self-cleavage, relative activity (ratio to wild type); higher = more cleavage; in vitro, sequencing; the parent is a self-cleaving ribozyme

**Q.** For GGCAGAGCUCAACACAGCGUGGUCAAGUGGCUGUGGGUAGACUGGC [C23U A24C C37G C45G], which self-cleavage is on record?
**A.** Its self-cleavage is 0.

**Q.** For GGCAGAGCUCAACACAGCGUGGUGAAUUGGCUGUGGCUAGACUGCC [C23U A24G G27U], which self-cleavage is on record?
**A.** Its self-cleavage is 0.7.

**Q.** Which self-cleavage does the source give for GGCAGAGCUCAACACAGCGUGGUGAAGUGGCUUUGGCUAGACUGUC [C23U A24G G33U C45U] here?
**A.** The self-cleavage was 0.

**Q.** Which self-cleavage does the source give for GGCAGAGCUCAACACAGCGUGGUGAAGUGGCCGUGGCUAAACUGCU [C23U A24G U32C G40A C46U] here?
**A.** Its self-cleavage is 0.02.

**Q.** For GGCAGAGCUCAACACAGCGUGGUUGAGUGGCUGCGGCUAGACUGCC [C23U A24U A25G U34C], which self-cleavage is on record?
**A.** Its self-cleavage is 0.03.

**Q.** Which self-cleavage does the source give for GGCAGAGCUCAACACAGCGUGGUACAAUGGGUGUGGCUAGACUGCC [C23U A25C G27A C31G] here?
**A.** The self-cleavage was 0.05.

**Q.** For GGCAGAGCUCAACACAGCGUGGUACAAUGGCUGUGGCUAAUCUGCC [C23U A25C G27A G40A A41U], which self-cleavage is on record?
**A.** Its self-cleavage is 0.04.

**Q.** For GGCAGAGCUCAACACAGCGUGGUACAGUGGCUGUCGCUAGACUGCC [C23U A25C G35C], which self-cleavage is on record?
**A.** Its self-cleavage is 0.1.

**Q.** Which self-cleavage does the source give for GGCAGAGCUCAACACAGCGUGGUACAGUGGCUGUUGCUAGACCGCC [C23U A25C G35U U43C] here?
**A.** The self-cleavage was 0.09.

**Q.** Which self-cleavage does the source give for GGCAGAGCUCAACACAGCGUGGUAGAGUGGGUGUGGCUAGACUGCC [C23U A25G C31G] here?
**A.** The self-cleavage was 0.13.

**Q.** With GGCAGAGCUCAACACAGCGUGGUAGAGUGGGUGUGGCUAGACUGCA [C23U A25G C31G C46A] as the variant, how does the self-cleavage read?
**A.** The self-cleavage was 0.07.

**Q.** For GGCAGAGCUCAACACAGCGUGGUAGAGUGGCUGAGGCUAGACUGCC [C23U A25G U34A], which self-cleavage is on record?
**A.** The self-cleavage was 0.22.

**Q.** For GGCAGAGCUCAACACAGCGUGGUAUAGUGGCUGUGGGUAGGCUGCC [C23U A25U C37G A41G], which self-cleavage is on record?
**A.** Its self-cleavage is 0.02.

**Q.** For GGCAGAGCUCAACACAGCGUGGUAUAGUGGCUGUGGCUAGAUUGCC [C23U A25U C42U], which self-cleavage is on record?
**A.** The self-cleavage was 0.36.

**Q.** For GGCAGAGCUCAACACAGCGUGGUAUAAUGGCUGUGGCUAGACUGCC [C23U A25U G27A], which self-cleavage is on record?
**A.** The self-cleavage was 0.57.

**Q.** With GGCAGAGCUCAACACAGCGUGGUAUAGUAGCUGUGGCUAGACUGCC [C23U A25U G29A] as the variant, how does the self-cleavage read?
**A.** The self-cleavage was 0.83.

**Q.** For GGCAGAGCUCAACACAGCGUGGUAACGUUGCUGUGGCUAGACUGCC [C23U A26C G29U], which self-cleavage is on record?
**A.** Its self-cleavage is 0.75.

**Q.** With GGCAGAGCUCAACACAGCGUGGUAACGUGGCUGUGGCUAGACCGCC [C23U A26C U43C] as the variant, how does the self-cleavage read?
**A.** The self-cleavage was 0.03.

**Q.** With GGCAGAGCUCAACACAGCGUGGUAAGGUGGUUGUGUCUAGACUGCC [C23U A26G C31U G36U] as the variant, how does the self-cleavage read?
**A.** Its self-cleavage is 0.05.

**Q.** Which self-cleavage does the source give for GGCAGAGCUCAACACAGCGUGGUAAGGUGGCCGUGGCUAGACUGCC [C23U A26G U32C] here?
**A.** The self-cleavage was 0.18.

**Q.** With GGCAGAGCUCAACACAGCGUGGUAAUGUAGCUGUGGGUAGACUGCC [C23U A26U G29A C37G] as the variant, how does the self-cleavage read?
**A.** The self-cleavage was 0.02.

**Q.** With GGCAGAGCUCAACACAGCGUGGUAAAGUGGCUGUGGCUAGGAUCCC [C23U A41G C42A G44C] as the variant, how does the self-cleavage read?
**A.** Its self-cleavage is 0.07.

**Q.** With GGCAGAGCUCAACACAGCGUGGUAAAGUGGAUGUGCCUAGACUGCU [C23U C31A G36C C46U] as the variant, how does the self-cleavage read?
**A.** Its self-cleavage is 0.07.

**Q.** For GGCAGAGCUCAACACAGCGUGGUAAAGUGGAUGUGGCUAGACUACU [C23U C31A G44A C46U], which self-cleavage is on record?
**A.** The self-cleavage was 0.04.

**Q.** Which self-cleavage does the source give for GGCAGAGCUCAACACAGCGUGGUAAAGUGGGUGUCGCUAGACUGCC [C23U C31G G35C] here?
**A.** Its self-cleavage is 0.06.

**Q.** Which self-cleavage does the source give for GGCAGAGCUCAACACAGCGUGGUAAAGUGGUUGUAGCUAGACUGCC [C23U C31U G35A] here?
**A.** Its self-cleavage is 0.02.

**Q.** For GGCAGAGCUCAACACAGCGUGGUAAAGUGGUUGUGUCUAGACUGCA [C23U C31U G36U C46A], which self-cleavage is on record?
**A.** Its self-cleavage is 0.14.

**Q.** For GGCAGAGCUCAACACAGCGUGGUAAAGUGGUUGUGGCUAGACUCCC [C23U C31U G44C], which self-cleavage is on record?
**A.** Its self-cleavage is 0.04.

**Q.** For GGCAGAGCUCAACACAGCGUGGUAAAGUGGCUGUGGAAAGACUGCC [C23U C37A U38A], which self-cleavage is on record?
**A.** The self-cleavage was 0.02.

**Q.** For GGCAGAGCUCAACACAGCGUGGUAAAGUGGCUGUGGUUAGAGUGCG [C23U C37U C42G C46G], which self-cleavage is on record?
**A.** The self-cleavage was 0.

**Q.** For GGCAGAGCUCAACACAGCGUGGUAAAAUGGCUGUGGUUAGACUGCC [C23U G27A C37U], which self-cleavage is on record?
**A.** Its self-cleavage is 0.02.

**Q.** Which self-cleavage does the source give for GGCAGAGCUCAACACAGCGUGGUAAAAUGGCUGUGGCUAGACUGCG [C23U G27A C46G] here?
**A.** Its self-cleavage is 0.97.

**Q.** Which self-cleavage does the source give for GGCAGAGCUCAACACAGCGUGGUAAAAGGGCCGUGGCUUGACUGCC [C23U G27A U28G U32C A39U] here?
**A.** Its self-cleavage is 0.08.

**Q.** For GGCAGAGCUCAACACAGCGUGGUAAAAUGGCAGUGGAUAGACUGCC [C23U G27A U32A C37A], which self-cleavage is on record?
**A.** Its self-cleavage is 0.02.

**Q.** Which self-cleavage does the source give for GGCAGAGCUCAACACAGCGUGGUAAACUGGCUGUGGCUAGACUGCG [C23U G27C C46G] here?
**A.** Its self-cleavage is 0.46.

**Q.** With GGCAGAGCUCAACACAGCGUGGUAAACUGGCUGUGGCCAGACCGCC [C23U G27C U38C U43C] as the variant, how does the self-cleavage read?
**A.** Its self-cleavage is 0.02.

**Q.** Which self-cleavage does the source give for GGCAGAGCUCAACACAGCGUGGUAAACUGGCUGUGGCUAGACCGCC [C23U G27C U43C] here?
**A.** The self-cleavage was 0.05.

**Q.** For GGCAGAGCUCAACACAGCGUGGUAAAUUGGCUGUGGCUAGAUUGCU [C23U G27U C42U C46U], which self-cleavage is on record?
**A.** Its self-cleavage is 0.19.

**Q.** With GGCAGAGCUCAACACAGCGUGGUAAAGUAGCUGUGGCUAAACUGCC [C23U G29A G40A] as the variant, how does the self-cleavage read?
**A.** The self-cleavage was 0.09.

**Q.** Which self-cleavage does the source give for GGCAGAGCUCAACACAGCGUGGUAAAGUAGCCGUGGCUAGACUGCC [C23U G29A U32C] here?
**A.** The self-cleavage was 0.2.

**Q.** For GGCAGAGCUCAACACAGCGUGGUAAAGUCGCUGUUGCUAGACUGCC [C23U G29C G35U], which self-cleavage is on record?
**A.** The self-cleavage was 0.09.

**Q.** For GGCAGAGCUCAACACAGCGUGGUAAAGUUGCUGUGGUUAGAGUGCC [C23U G29U C37U C42G], which self-cleavage is on record?
**A.** Its self-cleavage is 0.01.

**Q.** For GGCAGAGCUCAACACAGCGUGGUAAAGUGAGUGUGGCUAGACAGCC [C23U G30A C31G U43A], which self-cleavage is on record?
**A.** The self-cleavage was 0.18.

**Q.** For GGCAGAGCUCAACACAGCGUGGUAAAGUGAUUGUGGCUAGACUGCC [C23U G30A C31U], which self-cleavage is on record?
**A.** Its self-cleavage is 0.12.

**Q.** Which self-cleavage does the source give for GGCAGAGCUCAACACAGCGUGGUAAAGUGACUGUGGCUAGACUGUC [C23U G30A C45U] here?
**A.** Its self-cleavage is 0.51.

**Q.** With GGCAGAGCUCAACACAGCGUGGUAAAGUGACGGUGUCUAAACUGCA [C23U G30A U32G G36U G40A C46A] as the variant, how does the self-cleavage read?
**A.** Its self-cleavage is 0.02.

**Q.** For GGCAGAGCUCAACACAGCGUGGUAAAGUGACUGCGGAGAGACUGCC [C23U G30A U34C C37A U38G], which self-cleavage is on record?
**A.** The self-cleavage was 0.01.

**Q.** With GGCAGAGCUCAACACAGCGUGGUAAAGUGCCUGUGGUUAGACUGCC [C23U G30C C37U] as the variant, how does the self-cleavage read?
**A.** The self-cleavage was 0.16.

**Q.** With GGCAGAGCUCAACACAGCGUGGUAAAGUGUCUGUGUCUAGACUGCA [C23U G30U G36U C46A] as the variant, how does the self-cleavage read?
**A.** Its self-cleavage is 0.03.

**Q.** With GGCAGAGCUCAACACAGCGUGGUAAAGUGUCGGUGGCUAGACUGUC [C23U G30U U32G C45U] as the variant, how does the self-cleavage read?
**A.** Its self-cleavage is 0.05.

**Q.** For GGCAGAGCUCAACACAGCGUGGUAAAGUGUCUGUGGCUAGACCGCC [C23U G30U U43C], which self-cleavage is on record?
**A.** Its self-cleavage is 0.09.

**Q.** Which self-cleavage does the source give for GGCAGAGCUCAACACAGCGUGGUAAAGUGGCUAGGGCUUUACUGCC [C23U G33A U34G A39U G40U] here?
**A.** The self-cleavage was 0.03.

**Q.** For GGCAGAGCUCAACACAGCGUGGUAAAGUGGCUCUGGAUAGACUGCC [C23U G33C C37A], which self-cleavage is on record?
**A.** The self-cleavage was 0.03.

**Q.** With GGCAGAGCUCAACACAGCGUGGUAAAGUGGCUUUGGCUAGACUGCA [C23U G33U C46A] as the variant, how does the self-cleavage read?
**A.** Its self-cleavage is 0.04.

**Q.** With GGCAGAGCUCAACACAGCGUGGUAAAGUGGCUGUAACUAGACGGUC [C23U G35A G36A U43G C45U] as the variant, how does the self-cleavage read?
**A.** The self-cleavage was 0.23.

**Q.** Which self-cleavage does the source give for GGCAGAGCUCAACACAGCGUGGUAAAGUGGCUGUUACUAGACUGCC [C23U G35U G36A] here?
**A.** The self-cleavage was 0.29.
